This is one part of the list.
What follows are compounds tested on T1, C. trachomatis L2/434/Bu expressing GFP (CTL2-GFP). Conditions: total inclusion area; 28.5 h, 10 µM; inhibitor.
T1 construct: L2/434/Bu GFP intracellular growth in HeLa cells
Design: species or system HeLa; C. trachomatis total inclusion area by high-content imaging, normalised to DMSO
Outline: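 Post-fluorescence-read fixation, DNA staining with Hoechst and high-content imaging; GFP inclusion area and number per well, and nuclei counts, used as proxies for bacterial growth and host viability.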

Row | SMILES | % of control remaining
1 | C(#Cc1ccc(-c2cc[nH]n2)s1)c1ccccc1 [CBK023413] | 67.54
2 | Cc1cccc(-c2cc(C(=O)O)c(C)o2)c1 [CBK045855] | 98.4712
3 | O=C(Cn1cnc2c(cnn2-c2ccccc2)c1=O)N1CCc2ccccc21 [CBK287529] | 79.1822
4 | C=CCn1c(SCC(=O)Nc2ccccn2)nnc1-c1ccc(Br)cc1 [CBK022413] | 94.747
5 | CCOC(=O)CSc1nc(-c2ccc(C)cc2)cs1 [CBK007039] | 65.9427
6 | CCc1nc2ccc(C(=O)N3CCNC(=O)C3)cn2c1N(C)C(=O)COc1ccccc1 [CBK145871] | 118.78
7 | CCN(CC)S(=O)(=O)c1cc(C(=O)NC2CCCCC2)ccc1Br [CBK058354] | 64.9504
8 | Cc1ccc2oc([C@H]3CCN(Cc4ccc(C(=O)O)cc4)C3)nc2c1 [CBK289386] | 96.3657
9 | Cc1nc2[nH]c(=O)nc(N)c2nc1C [CBK025658] | 50.4704
10 | CCSC(SCC)c1ccnn1-c1ccccc1 [CBK019332] | 83.2607
11 | CCOC(=O)c1cnc(O/N=C(\N)c2ccc(C(C)(C)C)cc2)nc1C(F)(F)F [CBK022142] | 105.055
12 | Cc1ccc(-n2c(C)c(C)c3c(NCCO)cnnc32)cc1 [CBK288162] | 59.4334
13 | COC(=O)c1c(NC(=S)NCc2ccc(S(N)(=O)=O)cc2)sc2c1CCC2 [CBK266926] | 117.96
14 | Cc1nc(C)c(CNC(=O)NC2CCCN(c3ccn(C)n3)C2=O)s1 (stereo not shown) [CBK305457] | 64.0685
15 | COc1ccc(C2(CN3CCC(NC(=O)C4CC4)CC3)CC2)cc1 [CBK285358] | 92.0658
16 | COc1ccc([C@H]2CN(Cc3ccccc3)C[C@@H]2NC(C)=O)cc1 [CBK282930] | 95.6821
17 | O=C(CSCC(=O)c1ccc(F)cc1)Nc1ccc2ccccc2c1 [CBK263264] | 121.022
18 | COC(=O)c1ccccc1NC(=O)CSc1nnnn1C [CBK267441] | 107.807
19 | CCn1c2ccccc2c2cc(/C=N/c3cc(S(=O)(=O)c4ccc(O)c(/N=C/c5ccc6c(c5)c5ccccc5n6CC)c4)ccc3O)ccc21 [CBK261229] | 40.4478
20 | CN(C)c1ccc(CC(=O)N2CCc3ccccc3C2)cc1 [CBK200340] | 108.41

Row | SMILES | % of control remaining
21 | Cc1cc(Br)ccc1S(=O)(=O)Nc1nc(-c2c(F)cccc2Cl)cs1 [CBK200026] | 50.8014
22 | Cc1ccc(N(CC(=O)O)S(=O)(=O)c2ccc(C)cc2)cc1 [CBK262409] | 85.8627
23 | CN1CCN(c2n[nH]c(N)n2)CC1 [CBK026743] | 63.414
24 | Nc1nc2c(s1)c(O)nc(=O)n2Cc1ccccc1 [CBK291257] | 133.232
25 | O=C(NCc1n[nH]c(=S)n1-c1cccc(C(F)(F)F)c1)c1cccs1 [CBK067697] | 104.357
26 | Oc1cccc(Sc2nc3ccccc3nc2N2CCCC2)c1 [CBK093753] | 125.002
27 | Cc1nonc1CNC(=O)C1CC2C=CC1C21CC1 (stereo not shown) [CBK281678] | 113.685
28 | Cc1nn(C)cc1S(=O)(=O)N1CCc2cc(Cl)ccc21 [CBK282802] | 71.8943
29 | CCOc1ccccc1C1C=C(C(=O)O)Nc2c(C(=O)Nc3ccccc3)cnn21 (stereo not shown) [CBK287253] | 124.35
30 | CCC(=O)Nc1nc(-c2ccco2)c(-c2ccncc2)s1 [CBK284495] | 77.582
31 | c1csc(-c2nccnc2NCCCN2CCOCC2)c1 [CBK036632] | 98.7965
32 | Cn1c(CCC(=O)Nc2ccc3c(c2)CN(Cc2ccccc2)C3)nc2ccccc21 [CBK285990] | 81.5621
33 | COc1cc(/C=N/NC(=O)C(=O)Nc2ccc(C)c(C)c2)ccc1O [CBK262225] | 51.4596
34 | c1coc(-c2nccnc2NCCCN2CCOCC2)c1 [CBK038086] | 119.203
35 | COc1ccc(Sc2nccc(C(F)(F)F)n2)cc1OC [CBK093772] | 105.403
36 | C[C@@H](NC(=O)CCN1C(=O)[C@@H]2Cc3ccccc3CN2C1=O)C(=O)O [CBK286709] | 126.926
37 | CC(=O)Nc1cccc(-c2nccnc2NS(=O)(=O)c2cccs2)c1 [CBK050760] | 95.6963
38 | Cc1nn(C)c2ncc(S(=O)(=O)Nc3cc(C(N)=O)ccc3Cl)cc12 [CBK306104] | 65.0707
39 | CCNC(=O)C1(Cc2ccccc2-c2ccccc2)CCN(C(=O)c2csc(C)c2)CC1 [CBK285698] | 117.451
40 | OC1CC(c2cc(NCCc3nc4ccccc4o3)ncn2)C1 (stereo not shown) [CBK306573] | 33.337

Source: paper PMC12040169 (PLOS Biology, 2025)
